Out of some 350,000 compounds screened, about 260 (0.074%) were called active. Inconclusive results, whose numbers are uncertain, are shown with a selection of clear calls. Calls come from the whole dose curve; as a rule, active = well fitted inhibition curve with a large enough effect; inconclusive = small, poorly fitted or top-dose-only effect; inactive = no such curve, though single readings can be large or run the other way. Potencies beside an inconclusive call are fits to weak or partial responses and may not hold up.
Biological target: Ferritin light chain (Equus caballus) (UniProt P02791)
Experiment: qHTS Assay for Identification of Novel General Anesthetics; note: nearly all actives have a fitted effect of over 20% in size
Conditions: apoferritin/1-aminoanthracene competitive binding, fluorescence; series mostly up to 77.5 µM
Summary of the method: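 Read-out: endpoint 1-AMA fluorescence, excitation 380 nm and emission 535 nm, after compounds sit 10 min at room temperature with 10 uM horse-spleen apoferritin in 50% saturated 1-AMA/PBS. Values come from four-parameter Hill fits.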
Potency is the fitted concentration of half-maximal effect; tags give direction and shape of the fitted curve.

Sequence of UniProt P02791 (P02791 whole entry, looked up): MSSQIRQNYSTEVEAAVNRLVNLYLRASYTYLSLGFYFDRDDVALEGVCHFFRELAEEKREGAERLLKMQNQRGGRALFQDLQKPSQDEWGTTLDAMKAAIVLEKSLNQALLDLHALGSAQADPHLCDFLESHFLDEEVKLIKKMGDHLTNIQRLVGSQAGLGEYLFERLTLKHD

Row | SMILES | Potency
1 | CCC(CC)C(=O)N(CCc1ccc(OC)cc1)Cc1nc2ccccc2c(=O)[nH]1 | inconclusive: 28.2 µM [inhibitor, partial curve]
2 | COc1cccc(-c2ccc(=O)n(CC(=O)Nc3ccc(S(=O)(=O)NCC(C)C)cc3)n2)c1 | inconclusive: 14.1 µM [inhibitor, partial curve]
3 | Cc1cccc(NC(=O)C(C)N2C(=O)C3C4CC(C(Br)C4Br)C3C2=O)c1 (stereo not given) | inconclusive: 14.1 µM [inhibitor, partial curve]
4 | CCOc1cc(C=C(C(=O)OC)C(=O)OC)ccc1OCc1ccc([N+](=O)[O-])cc1 | inconclusive: 25.1 µM [inhibitor, single point]
5 | Cc1ccc(C(=O)NCCSc2ccc(Cl)cc2)cc1[N+](=O)[O-] | inconclusive: 31.6 µM [inhibitor, partial curve]
6 | CCCNc1c(NS(=O)(=O)c2ccc(Br)cc2)c(=O)oc2ccccc12 | inactive
7 | Cc1ccc2ccc3ccc(C)nc3c2n1 | inactive
8 | C=CCOc1c(Cl)cc(/C=N/O)cc1OC | inconclusive: 31.6 µM [inhibitor, partial curve]
9 | Cc1cc(C)n2c(SCc3ccc(Cl)cc3Cl)nnc2n1 | inconclusive: 3.98 µM [inhibitor, full curve, poor fit]
10 | O=[N+]([O-])c1ccc2c(c1)S(=O)(=O)C=C2 | inactive
11 | COc1ccc([N+](=O)[O-])cc1NC(=O)C1(c2ccc(OC)c(OC)c2)CCOCC1 | inactive
12 | COc1ccc(C(C)(C)C)cc1NC(=O)C1C2C=CC(C2)C1C(=O)O (stereo not given) | inconclusive: 25.1 µM [inhibitor, partial curve]
13 | COCCOC(=O)C1=C(C)NC(=O)NC1c1cn(-c2ccccc2)nc1-c1cccs1 (stereo not given) | inconclusive: 35.5 µM [inhibitor, partial curve]
14 | CCOC(=O)c1cccc(C(=O)Oc2ccccc2)n1 | inactive
15 | Cc1ccc(-c2nnc(SCC(=O)N/N=C/c3ccccc3C(=O)O)n2-c2ccc(Cl)cc2)cc1 | inactive
16 | Cc1ccsc1C=Nc1ccc(O)cc1 | inconclusive: 20 µM [inhibitor, partial curve]
17 | CCOC(=O)c1[nH]c2c(c1Cc1ccccc1OC)C(=O)CC(c1ccc(OC)cc1)C2 (stereo not given) | inactive
18 | COc1ccccc1-c1nnc(NC(=O)c2ccc(S(=O)(=O)N(C)C)cc2)o1 | inactive
19 | CN(C)S(=O)(=O)Oc1ccc(Cl)cc1C(=O)Nc1cccc(C(F)(F)F)c1 | inactive
20 | C=CCNc1nc2c(c(=O)n(C)c(=O)n2C)n1CC | inactive
21 | COc1cccc(/C(=N/O)C2CC2c2ccc(Cl)cc2)c1 (stereo not given) | inconclusive: 39.8 µM [inhibitor, single point]
22 | Clc1cccc(CSc2ccc(-c3cccnc3)nn2)c1 | inconclusive: 28.2 µM [inhibitor, single point]
23 | COC(=O)c1ccccc1NC(=O)c1ccc(COc2cccc3ccccc23)o1 | inactive
24 | CS(=O)(=O)c1ccc(S(=O)CC(=O)Oc2ccc(Cl)cc2)c([N+](=O)[O-])c1 (stereo not given) | inactive

Row | SMILES | Potency
25 | CC1CCN(S(=O)(=O)c2ccc(NC(=O)c3cccs3)cc2)CC1 | inconclusive: 50.1 µM [inhibitor, single point]
26 | CCN(CC)c1ccc(/C=N/NC(=O)c2cc(C)nc3ccccc23)cc1 | inconclusive: 35.5 µM [inhibitor, single point]
27 | Cc1cccc(Cl)c1NC(=O)N1CCN(c2ccnc3cc(Cl)ccc23)CC1 | inactive
28 | Cc1cc(C(=O)N2CCN(c3ccccc3)CC2)c2c(C)nn(-c3cccc(F)c3)c2n1 | inconclusive: 20 µM [inhibitor, partial curve]
29 | CCc1ccc2oc(=O)cc(CN3CCN(c4ccc(F)cc4)CC3)c2c1 | inconclusive: 22.4 µM [inhibitor, partial curve]
30 | CCOc1cccc(-c2c(C(=O)N/N=C/c3cccnc3)nnn2-c2nonc2N)c1 | inconclusive: 35.5 µM [inhibitor, single point]
31 | CC1=C(C(=O)OC2CCCC2)C(c2c(Cl)cccc2Cl)CC(=O)N1 (stereo not given) | inconclusive: 35.5 µM [inhibitor, single point]
32 | CC(C)c1cc(C(=O)NC2CCCCC2)no1 | inactive
33 | O=C(CSc1nc2sc3c(c2c(=O)[nH]1)CCCC3)NCCO | inactive
34 | O=C1/C(=C/c2ccc(F)cc2)SC(=S)N1CC(=O)N1CCCCC1c1cccnc1 (stereo not given) | inconclusive: 12.6 µM [inhibitor, partial curve]
35 | COc1ccc(C2=NOC(C(=O)Nc3ccc(C)cc3)C2)cc1OC (stereo not given) | inconclusive: 50.1 µM [inhibitor, single point]
36 | Cc1cc(S(=O)(=O)NCC2CC2)c(Cl)cc1Cl | inconclusive: 50.1 µM [inhibitor, single point]
37 | COc1cc(/C=N/NC(=O)CC23CC4CC(CC(C4)C2)C3)cc(Br)c1OCC(=O)N(C)C | inconclusive: 35.5 µM [inhibitor, partial curve]
38 | Cc1ccc(C(C)C)c(OCc2nn(CC(=O)c3ccc(OC(F)F)cc3)c3[n+]2CCCCC3)c1 | inconclusive: 8.91 µM [inhibitor, partial curve]
39 | CC(NC(=O)CSC(=S)N(C)C)C12CC3CC(CC(C3)C1)C2 (stereo not given) | inconclusive: 50.1 µM [inhibitor, single point]
40 | Oc1ccccc1CNc1ccc2c(c1)OCCO2 | inconclusive: 22.4 µM [inhibitor, partial curve]
41 | CC(C)(C)c1cc(C(=O)NN)n(Cc2ccc(F)cc2)n1 | inconclusive: 22.4 µM [inhibitor, partial curve]
42 | CC1(C)Cc2c(sc(NC(=O)C(=O)NCC3CCCO3)c2C(=O)O)CO1 (stereo not given) | inconclusive: 12.6 µM [inhibitor, full curve]
43 | CCOC(=O)c1ccc(N2C(=O)c3[nH]nc(-c4ccc(C)cc4)c3C2c2cccs2)cc1 (stereo not given) | inactive
44 | Clc1ccccc1OCCCn1ccnc1 | inconclusive: 35.5 µM [inhibitor, partial curve]
45 | COCCSc1ccccc1C(=O)Nc1ccc([N+](=O)[O-])cc1OC | inconclusive: 31.6 µM [inhibitor, partial curve]
46 | O=C(NC(=S)Nc1ccc(F)cc1)c1ccc2c(c1)OCCO2 | inactive
47 | Cc1ccc(-n2ncc3c(NC(C)c4ccccc4)ncnc32)cc1 (stereo not given) | inactive
48 | CCOC(=O)C1CCCN(C(=O)c2cc(-c3ccc(F)cc3)nc3ccccc23)C1 (stereo not given) | inconclusive: 31.6 µM [inhibitor, partial curve]

Row | SMILES | Potency
49 | Cc1ccc(N2CCN(C(=O)CN3C(=O)c4ccccc4C3=O)CC2)cc1 | inconclusive: 31.6 µM [inhibitor, partial curve]
50 | Cc1ccc(Nc2nc(C(=O)N3CCC(C(=O)N4CCN(C)CC4)CC3)cs2)cc1 | inactive
51 | CN(c1ccc(F)cc1)S(=O)(=O)c1ccc(Cl)c(C(=O)OCC(=O)NCc2ccco2)c1 | inconclusive: 31.6 µM [inhibitor, single point]
52 | CCCC/C(C)=N\NC(=O)CNS(=O)(=O)c1ccc([N+](=O)[O-])cc1 | inconclusive: 31.6 µM [inhibitor, partial curve]
53 | Cc1ccc(NC(=O)Cc2sc(C)nc2-c2ccc(C)cc2)cc1 | inconclusive: 39.8 µM [inhibitor, single point]
54 | Cc1ccc2sc(NNC(=O)c3cc(=O)c4ccccc4o3)nc2c1C | inconclusive: 35.5 µM [inhibitor, partial curve]
55 | CCCCCOC(=O)Nc1nnc(CCC)s1 | inconclusive: 28.2 µM [inhibitor, partial curve]
56 | CCCCn1c(-c2sccc2C)n[nH]c1=S | inactive
57 | CC(=O)c1ccc(N2CCCCCC2)c(F)c1 | inconclusive: 35.5 µM [inhibitor, partial curve]
58 | CCCCOc1ccc(C(=O)N/N=C/c2cn[nH]c2-c2ccc(OC)c(OC)c2)cc1 | inconclusive: 35.5 µM [inhibitor, single point]
59 | O=S1(=O)CC/C(=N\Nc2ccccc2)c2ccsc21 | inconclusive: 25.1 µM [inhibitor, single point]
60 | COc1ccc(CCNC(=O)CCCCn2c(=O)c3ccccc3n(CC(=O)Nc3c(C)cccc3C)c2=O)cc1OC | inconclusive: 11.2 µM [inhibitor, single point]
61 | Cc1nn(-c2ccc(N3CCCCC3)nn2)c(C)c1CCC(=O)Nc1ccc(F)cc1F | inconclusive: 10 µM [inhibitor, full curve, poor fit]
62 | COc1cc(OC)c(C2CC(=O)N3CN(c4ccccc4C)CSC3=C2C#N)cc1OC (stereo not given) | inactive
63 | O=C1c2ccccc2C(=O)N1CCc1nc(-c2ccc(Cl)cc2)no1 | inconclusive: 35.5 µM [inhibitor, partial curve]
64 | COc1ccc(/C=C2\SC(N3CCc4ccccc4C3)=NC2=O)cc1 | inconclusive: 25.1 µM [inhibitor, partial curve]
65 | CCCN(CCC)c1nc(N)c(C#N)c(CC#N)c1C#N | inconclusive: 31.6 µM [inhibitor, partial curve]
66 | CCC(Sc1nc2ccccc2s1)C(=O)Nc1nnc(C)s1 (stereo not given) | inconclusive: 31.6 µM [inhibitor, partial curve]
67 | Cc1ccccc1C(=O)NC(=S)Nc1sc2c(c1C#N)CCC(C)C2 (stereo not given) | inconclusive: 39.8 µM [inhibitor, partial curve]
68 | CN(Cc1ccccc1)C(=O)c1c[nH]c2ccc(S(=O)(=O)N3CCOCC3)cc2c1=O | inactive
69 | Cc1ccc2ncnc(NCCCCCC(=O)O)c2c1 | inconclusive: 39.8 µM [inhibitor, single point]
70 | CC(C)NC(=S)N/N=C/c1sc(N2CCCCC2)nc1-c1cccs1 | inactive

Source: PubChem BioAssay AID485281 (National Center for Advancing Translational Sciences (NCATS), 2010)
